# Some of the results follow.
# System: PfHDP1 homeodomain (GST-tagged)
# Experiment: gcPBM binding intensity (ln(normalized median fluorescence intensity)); higher = stronger DNA binding
# How it was run: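 Binding of GST-tagged P. falciparum DNA-binding domains, expressed in E. coli and used at about 25 μg on average, was carried out for 1 h in 1× PBS containing 1% milk, 0.2 mg/ml BSA, 0.5% salmon testes DNA and 0.03% Triton X-100. The target was an Agilent 4 × 180k array of primer-extended double-stranded 36-bp intergenic genomic probes plus negative controls, read with Alexa488 anti-GST antibody at 488 nm. Binding intensity is the highest Masliner-normalised natural-log median intensity across replicate spots of either probe orientation.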
row,Sequence,gcPBM binding intensity (ln)
1,AAACAAAGAAAGAACACACATACACAATATACCTAC [CACACA_site2835],6.92
2,ATATATGTGTATGTATGTACTCATTTTTGTATATAT [XGTACX_site490],6.33
3,TTATATATTTATATTTGTACGTATAAATTTTTTTTT [XGTACX_site2833],6.28
4,CATTTAAATTATAAGTGTACACGATCATATTTCATC [XGTACX_site349],6.69
5,TATTTTGAAAAAGTTGCACACAAAATTTAAAAAAAA [CACACA_site8470],9.29
6,ATAATGATATATTATAAACACACAAAGATGAATATA [CACACA_site8914],6.56
7,AGGATATGCAGACACACACACATATATATATATATA [CACACA_site2201],9.34
8,TTTTTTAATAATAGGAAAATGAATATTATATCGAAT [TGCATGCA_negctrl_site543],6.53
9,GTTATAGAAGCATTCACACACACACCCACATACACA [CACACA_site1465],7
10,TTACATAATATATGTACACACGCAAATACTTAGAAT [CACACA_site320],6.63
11,AAACGATTACTGTGTACACACATAGTTATAAACATA [CACACA_site5195],6.71
12,GAATGTTAACGTTGCACACAAAAAAAAAGTATACAT [CACACA_site2415],9.39
13,TTTTTTTTTTTTTCAAGTACATAACTTACCCCTTTT [XGTACX_site6207],6.37
14,TTATATGCATAAAAACGTACAAAAATGTATTCATGT [XGTACX_site2215],6.49
15,ATAAATATATGAAATATACACACTTCTTTGGTATTA [CACACA_site456],6.3
16,TTTCGTAACTATTTGTGTACATATATATATATATAT [XGTACX_site2920],9.32
17,ATTTTCTTTTCCATAGTGCAATATAATTATCCATCA [GTGCAC_site9547],10.9
18,TTATTATTTTATAACACACACATATAGATTATAGCT [CACACA_site6787],6.43
19,ATATATATATATATAAAGTGAAGTATGAGGGAAATA [XGTACX_negctrl_site497],9.22
20,TATGTATGTATTAATGCGCACACAAAAAATAACAAT [CACACA_site8551],7.73
21,AAAAATTAAATATAAAGTACAAAATTAAAATCTTAA [XGTACX_site931],5.89
22,TTTTGTATTTATGGATGTACATAATATGTTTTAAAC [XGTACX_site3278],6.68

row,Sequence,gcPBM binding intensity (ln)
1,ATACATATATATATGTGTACATATTATATATACATA [XGTACX_site8420],6.38
2,TTTCCATATATAGAACGTACAAAGATCTTTGTTACT [XGTACX_site8972],6.65
3,TATATATATTTATACACACAAACATAATACTACTTA [CACACA_site2022],6.86
4,TAGCTTTTGCCTTTTTTTAAAAAAAAATAAATAAAT [TGCATGCA_negctrl_site242],6.18
5,TGCATATACATATGTAGTACAATAATTTGAAAAAAA [XGTACX_site5239],6.37
6,TTTTTTTTTATGTGCACACAAAAGATGCTTATATTT [CACACA_site2348],11.2
7,TATATATGGTATAATTGTACTAACGCCAACTATACC [XGTACX_site5853],6.44
8,ATAAATACACACAAGTGTACATACTTCTATAAATAT [XGTACX_site1845],7.04
9,GTTATAAATAAATACACACATACAAAAATATGACGT [CACACA_site1154],6.57
10,ATATAAAATACATGGGTGCAATATATTAAACAAATA [GTGCAC_site9421],9.33
11,TATGACCTTAGAAATTGTACAAGAAAAAATGTTACA [XGTACX_site7084],6.57
12,TCACATACATGAAAATGTACTTTTATAATTCCATAA [XGTACX_site1836],6.3
13,ATCGTGAATAATATCTGTACATATGAACACATATAT [XGTACX_site952],6.54
14,TAAAGGTGAACAATACGTACATAAGAACTTATGAGG [XGTACX_site4216],6.43
15,TCTGTAAATACGTGCACACACAAATCACAAATGTGA [CACACA_site330],9.55
16,TAAATAATTTCACGAATGACAAAGATATAATAAGTT [CACACA_negctrl_site1430],6.42
17,ATTTTGTGCGCACACACATGCAAAAAGAAATATGAT [TGCATGCA_site261],10.5
18,AAAGAGAGTATCTAATGTACGTATGTATGTATATAT [XGTACX_site1780],6.74
19,ATATTATAATAAATGTGTACATATTGTAGAAATATT [XGTACX_site8101],6.56
20,AATTATTTACCCTATACACACAAAACACGCTAAAAA [CACACA_site1211],7.4
21,TATTATATATTAAATGCATGTAAAAATAATATTAAA [TGCATGCA_site643],6.59
22,TTCTTCAAGGAAAACACATGCGCATTTTCACCAATT [TGCATGCA_site11],8.44

# Reference: the supplement of paper PMC11417369
